Drawing on PubChem BioAssay AID286 (DTP/NCI, 2004), this text covers T/C for two molecules.

Toxic doses and inconclusive results are not listed. For part of its entries the source gives two or more results. This is not the full list of results. There may be further records. The values listed for one entry differ for a reason that is not stated; some may be repeats, others may stem from another dose, organism or construct than stated.

In this experiment the test system is BDF1 mice, M5076 sarcoma ip, median survival T/C. Put plainly: NCI In Vivo Anticancer Drug Screen. Data for tumor model Sarcoma M5076 (intraperitoneal) in B6D2F1 (BDF1) mice. The following applies: endpoint: median survival time, schedule: Q04DX005 (ip), vehicle: saline, higher = longer survival. The protocol: The antitumor activity of compounds was measured in mice bearing transplantable tumors. Survival or tumor size were measured and the results are expressed as the measurement made in the treated group (T) divided by the measurement made in the vehicle treated control group (C). The tumor model used in this assay is Sarcoma M5076 (intraperitoneal) in B6D2F1 (BDF1) mice

Regarding `O=c1[nH]cc(F)c(=O)[nH]1`, the T/C is 107 % of control and 196 % of control (dose: 12.5 mg/kg/injection); 119 % of control and 192 % of control (dose: 25.0 mg/kg/injection). In the case of `N[C@H](C(=O)O)[C@@H]1CC(Cl)=NO1`, the T/C (dose: 30.0 mg/kg/injection) was 119 % of control and 155 % of control.
